# Test results: PubChem BioAssay AID504333 (National Center for Advancing Translational Sciences (NCATS), 2011)
# The whole screen tested about 360,000 compounds, of which about 16,000 (4.4%) were called active. This list was built around the results that the source calls inconclusive (neither active nor inactive); the mix of calls is not that of the screen. Calls follow the shape of the dose curve; as a rule, active = well fitted inhibition curve with a large enough effect; inconclusive = small, poorly fitted or top-dose-only effect; inactive = no such curve, though single readings can be large or run the other way. A potency beside an inconclusive call is a rough fit, not a confirmed value.
# Molecular target: Bromodomain adjacent to zinc finger domain protein 2B (Homo sapiens) (UniProt Q9UIF8)
# Sequence of UniProt Q9UIF8 (Q9UIF8 whole entry, looked up, the tested form may be a part): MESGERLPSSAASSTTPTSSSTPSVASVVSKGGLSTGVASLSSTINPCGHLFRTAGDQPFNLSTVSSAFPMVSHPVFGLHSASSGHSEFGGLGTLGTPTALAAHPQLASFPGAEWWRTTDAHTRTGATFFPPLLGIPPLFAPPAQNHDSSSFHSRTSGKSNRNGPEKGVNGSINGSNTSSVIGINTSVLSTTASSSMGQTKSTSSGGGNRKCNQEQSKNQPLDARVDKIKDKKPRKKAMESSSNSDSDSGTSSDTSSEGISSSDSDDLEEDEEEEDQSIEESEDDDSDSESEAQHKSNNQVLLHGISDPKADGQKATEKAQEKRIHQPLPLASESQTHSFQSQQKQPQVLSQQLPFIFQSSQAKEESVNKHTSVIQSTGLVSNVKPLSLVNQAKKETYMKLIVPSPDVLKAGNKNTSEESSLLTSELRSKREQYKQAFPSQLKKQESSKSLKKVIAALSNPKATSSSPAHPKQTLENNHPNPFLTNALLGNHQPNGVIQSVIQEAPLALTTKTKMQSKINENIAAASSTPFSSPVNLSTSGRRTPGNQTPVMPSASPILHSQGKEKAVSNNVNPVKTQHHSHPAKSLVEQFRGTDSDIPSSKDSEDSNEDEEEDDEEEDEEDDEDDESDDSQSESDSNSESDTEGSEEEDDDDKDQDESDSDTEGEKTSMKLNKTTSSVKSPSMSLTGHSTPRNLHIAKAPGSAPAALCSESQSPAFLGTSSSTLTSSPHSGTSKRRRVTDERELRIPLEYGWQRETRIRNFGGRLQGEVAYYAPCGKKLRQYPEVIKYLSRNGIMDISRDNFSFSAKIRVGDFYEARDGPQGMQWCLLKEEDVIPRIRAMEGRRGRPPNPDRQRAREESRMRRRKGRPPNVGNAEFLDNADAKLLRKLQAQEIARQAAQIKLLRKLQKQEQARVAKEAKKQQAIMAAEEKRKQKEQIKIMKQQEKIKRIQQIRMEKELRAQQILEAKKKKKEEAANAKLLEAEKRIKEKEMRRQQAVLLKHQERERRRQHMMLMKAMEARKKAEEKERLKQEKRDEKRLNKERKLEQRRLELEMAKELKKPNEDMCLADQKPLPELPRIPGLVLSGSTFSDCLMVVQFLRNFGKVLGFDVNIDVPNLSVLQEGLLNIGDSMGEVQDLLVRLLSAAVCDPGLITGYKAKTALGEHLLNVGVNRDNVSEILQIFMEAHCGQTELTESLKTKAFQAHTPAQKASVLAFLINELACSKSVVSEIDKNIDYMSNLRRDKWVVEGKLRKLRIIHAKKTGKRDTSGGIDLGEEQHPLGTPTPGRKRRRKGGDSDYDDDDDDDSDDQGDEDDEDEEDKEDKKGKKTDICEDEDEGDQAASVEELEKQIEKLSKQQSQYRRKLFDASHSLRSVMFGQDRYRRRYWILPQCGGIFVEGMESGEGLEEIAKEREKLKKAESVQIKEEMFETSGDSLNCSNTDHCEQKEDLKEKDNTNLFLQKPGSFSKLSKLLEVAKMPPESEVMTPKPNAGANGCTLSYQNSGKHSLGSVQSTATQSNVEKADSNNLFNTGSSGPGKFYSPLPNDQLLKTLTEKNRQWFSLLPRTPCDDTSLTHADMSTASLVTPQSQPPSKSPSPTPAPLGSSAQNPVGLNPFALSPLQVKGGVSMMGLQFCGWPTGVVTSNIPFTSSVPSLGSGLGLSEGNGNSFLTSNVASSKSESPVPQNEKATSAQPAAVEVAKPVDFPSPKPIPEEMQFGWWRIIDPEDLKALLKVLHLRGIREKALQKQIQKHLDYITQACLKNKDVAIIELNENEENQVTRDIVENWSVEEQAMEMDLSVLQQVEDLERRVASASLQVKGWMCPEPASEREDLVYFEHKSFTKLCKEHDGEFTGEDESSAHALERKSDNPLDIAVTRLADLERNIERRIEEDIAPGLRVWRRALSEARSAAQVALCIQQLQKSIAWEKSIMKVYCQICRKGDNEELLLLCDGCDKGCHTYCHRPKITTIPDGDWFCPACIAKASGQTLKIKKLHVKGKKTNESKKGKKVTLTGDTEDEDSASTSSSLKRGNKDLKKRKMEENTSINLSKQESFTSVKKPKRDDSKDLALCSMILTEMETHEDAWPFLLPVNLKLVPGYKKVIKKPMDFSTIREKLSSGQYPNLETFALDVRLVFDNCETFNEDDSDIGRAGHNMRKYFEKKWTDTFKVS
# Assay: qHTS Assay for Inhibitors of BAZ2B; also: nearly all actives have a fitted effect of over 60% in size
# Details: AlphaScreen BAZ2B-H3K14Ac peptide displacement; activity change, negative = inhibition: at 114 µM (top of the series) unless noted
# Summary of the method: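 BAZ2B (50 nM) with biotin-H3(5-23)K14Ac peptide (50 nM) in PBS pH 7.4, 0.01% Tween-20, preformed 30 min, then compound 30 min at room temperature; top concentration 110uM. AlphaScreen streptavidin donor/nickel chelate acceptor beads (10 ug/mL final), 20 min dark, signal read.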
# % is scaled to controls: 0 for no effect and ±100 for the full control effect; potency is read from the fitted curve at half-maximal effect; tags tell the direction and shape of the fitted curve.
Structure (SMILES),Potency,"activity change, negative = inhibition"
COc1ccccc1N1C(=O)S/C(=C\c2cc(C)n(C)c2C)C1=O,"inconclusive: 70.8 µM [inhibitor, partial curve]",
CCN(CC)c1ccc(C=Nc2ccccc2)c(O)c1,,inactive: -38.1%
CC(=O)c1c(C)[nH]c(C(=O)Nc2cccc(S(=O)(=O)N3CCOCC3)c2)c1C,"inconclusive: 79.4 µM [inhibitor, single point]",
CN(C)[C@@H]1C(=O)C(C(N)=O)=C(O)[C@@]2(O)C(=O)C3=C(O)c4c(O)ccc(Cl)c4[C@@H](O)[C@H]3C[C@@H]12,active: 10 µM,
COc1ccc(C(c2c(C)[nH]n(-c3ccccc3)c2=O)c2c(C)[nH]n(-c3ccccc3)c2=O)cc1OC,"inconclusive: 39.8 µM [inhibitor, full curve]",
O=C(NC(C(=O)N/N=C/c1cc([N+](=O)[O-])ccc1O)c1n[nH]c(=O)c2ccccc12)c1ccccc1 (configuration not stated),active: 31.6 µM,
COc1ccc(CCCc2nnc(SCC(=O)Nc3ccc(OC)cc3)o2)cc1,,inactive: 2.98%
S=C(c1ccc(-c2ccc(Cl)cc2)o1)N1CCCCC1,active: 28.2 µM,
CC(NC(=O)c1ccccc1Cl)C(=O)Nc1ccc2c(c1)OCO2 (configuration not stated),"inconclusive: 50.1 µM [inhibitor, partial curve]",
CC(C)c1ccccc1NC(=O)COC(=O)/C=C/c1cccc([N+](=O)[O-])c1,,inactive: 11.2%
CC(C)(C)NS(=O)(=O)c1cc(C(=O)Nc2sccc2C#N)ccc1Cl,"inconclusive: 50.1 µM [inhibitor, partial curve]",
CCOC(=O)c1c(NC(=O)COC(=O)Cn2cnc3ccccc32)sc2c1CCC(C)C2 (configuration not stated),"inconclusive: 79.4 µM [inhibitor, single point]",
Cc1onc(-c2ccccc2)c1C(=O)N1CCCC1,active: 50.1 µM,
COc1ccc(CCNC(=O)CSc2nnc(-c3ccco3)c(-c3ccco3)n2)cc1OC,active: 44.7 µM,
Cc1cnc(=O)[nH]c1SCc1ccc(C(F)(F)F)cc1,,inactive: -0.438%
CC1CCN(c2ccccc2NC(=O)c2ccc(Br)o2)CC1,"inconclusive: 28.2 µM [inhibitor, partial curve]",
c1ccc(SCc2nc3ccccc3s2)nc1,,inactive: 1.14%
COc1cc(C(C[N+](=O)[O-])c2c(C)cc3ccccn23)ccc1O (configuration not stated),active: 28.2 µM,
Cc1cc(C(c2ccc(O)cc2)c2cc(C)c(O)cc2C)c(C)cc1O,"inconclusive: 50.1 µM [inhibitor, partial curve]",

Structure (SMILES),Potency,"activity change, negative = inhibition"
COc1cc2c(cc1C1NC(=S)NC(C)=C1C(N)=O)CCCC2 (configuration not stated),"inconclusive: 89.1 µM [inhibitor, single point]",
O=C(CSc1nnc(Nc2ccccc2F)s1)NC(=O)CN1CCCC1=O,"inconclusive: 89.1 µM [inhibitor, single point]",
O=C1CCCN1CCNC(=S)Nc1ccccc1,,inactive: -20.9%
CN(CC(=O)Nc1cccc(F)c1)C(=O)CNS(=O)(=O)c1ccc(N(C)C)c([N+](=O)[O-])c1,active: 70.8 µM,
Cc1cc(C(=O)COc2ccccc2C(N)=O)c(C)n1C1CC1,"inconclusive: 79.4 µM [inhibitor, partial curve]",
Cc1cccc(C)c1NC(=O)N1CCC(n2cnc3ccccc32)CC1,,inactive: -6.19%
Cn1cccc1Cc1nnc(SCC(=O)N2CCc3ccccc32)n1-c1ccc(F)cc1,,inactive: -11.3%
O=C(CCN1C(=O)/C(=C/c2cccs2)SC1=S)Nc1ccc(C(=O)O)cc1,active: 56.2 µM,
COc1cccc(C(=O)Nc2cccc(-c3cn4c(C)csc4n3)c2)c1OC,"inconclusive: 79.4 µM [inhibitor, single point]",
Cc1cccc(N2CCN(C(=O)CCn3c(=O)c4cccn4c4cccnc43)CC2C)c1 (configuration not stated),,inactive: -36.6%
CCOC(=O)c1sc(S(C)(=O)=O)c2c1CCc1conc1-2,,inactive: -21.3%
CC[n+]1ccc2cc(OC)c(OC)cc2c1Cc1ccc(OC)c(OC)c1,active: 79.4 µM,
O=C(/C=C/c1ccc2c(c1)OCO2)c1ccccn1,"inconclusive: 79.4 µM [inhibitor, partial curve]",
CC1=C(C(=O)Nc2ccccn2)C(c2ccc(Br)cc2)n2ncnc2N1 (configuration not stated),"inconclusive: 100 µM [inhibitor, single point]",
N=C1/C(=C\c2coc3ccc(O)cc3c2=O)C(=O)N=C2SC=CN12,"inconclusive: 70.8 µM [inhibitor, single point]",
COc1ccc(C)cc1Nc1nc(-c2c[nH]c3ccccc23)cs1,active: 50.1 µM,
CCOc1ccc(N2CC(C(=O)Nc3cc(OCC)c(N4CCOCC4)cc3OCC)CC2=O)cc1 (configuration not stated),,inactive: 0.0742%
Cn1c(=O)c2cn(-c3ccc4c(c3)OCCO4)cc2n(C)c1=O,"inconclusive: 89.1 µM [inhibitor, single point]",
